This is one part of the list.
These sequences were tested on PfAP2-HC AP2 domain (GST-tagged) (assay: gcPBM binding intensity (ln(normalized median fluorescence intensity)); higher = stronger DNA binding).
Summary of the method: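 The highest Masliner-normalised natural-log median intensity across replicate spots of either probe orientation is reported as binding intensity. GST-tagged P. falciparum DNA-binding domains expressed in E. coli were applied for 1 h to an Agilent 4 × 180k array of primer-extended double-stranded 36-bp intergenic genomic probes plus negative controls, and bound protein was detected with Alexa488 anti-GST antibody and scanned at 488 nm.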

| Sequence | gcPBM binding intensity (ln) |
| --- | --- |
| ATGTTTTTAAAAAATTGTACATAATATTTTTTATAA [XGTACX_site7692] | 9.46 |
| ATAAAAGGAAGAAAATGTACATATAATTATATGCAT [XGTACX_site8421] | 9.83 |
| TTTTTCTATAAAAAAAAAAAAAAAAAATATATATAT [TGCATGCA_negctrl_site535] | 9.33 |
| TTGTATATTTTATGTACACACAATAAGTTAATATAA [CACACA_site4655] | 9.63 |
| AAAATAATGTATATATGTACATATAAATATATATAT [XGTACX_site8081] | 9.89 |
| TATTATTGCATATTTACACACGTACTAATTTAAACA [CACACA_site970] | 9.91 |
| TTTTACAAATATAATGGGTGAGCTATCAAAATAAAT [GTGCAC_negctrl_site91] | 9.49 |
| TGTATACTATTAAATTGTACACATAAGAAATATTAT [XGTACX_site5839] | 9.61 |
| AAAAAAATACCATTCACACATATTCTTTTATTATTT [CACACA_site5113] | 9.75 |
| AAAAAAAAAAAGTTTACACACATTAATTTTACATAT [CACACA_site834] | 9.9 |
| TTTCATAACAAAAAAGTGCAAAATAGCACGAACATT [GTGCAC_site9703] | 9.76 |
| AGAAAAAGGAGAAAAAGTACAAAACGGAGTAGTATT [XGTACX_site3858] | 9.82 |
| AAAAATTATATACATCATAGAATTAACATTTTAAAT [GTGCAC_negctrl_site369] | 9.61 |
| TAATAATACCCTTGCTGTACCAAATAAAGTTGAATA [XGTACX_site6922] | 9.52 |
| AAATCAACGATCTATACATGCATATAATATATACAT [TGCATGCA_site25] | 9.61 |
| GTAGCAATAAACATATGTACATATATATATTTTTTC [XGTACX_site5814] | 9.8 |
| ACAAACAAAGAAAGAACACACATACACAATATACCT [CACACA_site5566] | 10.3 |
| ATATTTAAATAATATTCACACACAAAATTATATTTT [CACACA_site7955] | 10 |
| CATATAAAAATATATGCACACAAATAAAAAATTATA [CACACA_site9210] | 9.81 |
| ATTTCTCAATCGTAATGTACAAAAAAAAGGGAAAAG [XGTACX_site2781] | 9.63 |
| TATGAGGAAACGTGGTGTACTTTTTTTTAATAAAAA [XGTACX_site1351] | 9.34 |
| ATAAATATAATAATCATACACACCAAAGAGAATATT [CACACA_site1888] | 10 |
| AAAGTTATTATGCAATAATTATGATAATTAATATAT [TGCATGCA_negctrl_site316] | 9.61 |
| ATGACTTACATATATAGTACTTTGTTTTGGAGTTGC [XGTACX_site94] | 9.57 |

— the supplement of paper PMC11417369
